pIC50: −log10 of the molar value. IC50 is the fitted dose that halves viability relative to control wells, and lower means more sensitive; a limit (>, <) means that the fit lies beyond the doses tested. AUC is the area under the same curve over the 256-fold range up to the top dose, as a fraction; the more sensitive the line, the further below 1. For some assays here: An inferred top dose was derived from the fitted curves, not read from the paper.
Tests used:
Assay in all cases: Viability of human cancer cell lines after 72 h of drug (GDSC screen)
STF-62247 = compound: Cc1cccc(Nc2nc(-c3ccncc3)cs2)c1 [STF-62247]; settings: top dose 10.24 µM; top dose inferred
Method: (§1)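 Human cancer cell lines in 384-well plates, medium with 10% serum, drug for 72 h over a 256-fold dose range (nine 2-fold or five 4-fold steps up to the top dose). Adherent lines were fixed and stained with the nucleic acid dye Syto60, suspension lines read with resazurin; signal relative to control wells, capped at 0 and 100%. One two-parameter sigmoid per drug and line, fitted in a mixed model over all curves with the slope shared within a line.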

CP724714 = compound: COCC(=O)NC/C=C/c1ccc2ncnc(Nc3ccc(Oc4ccc(C)nc4)c(C)c3)c2c1 [CP724714]; settings: top dose 10.24 µM; top dose inferred
Method: as §1

CX-5461 = compound: Cc1cnc(CNC(=O)c2c(=O)c3ccc(N4CCCN(C)CC4)nc3n3c2sc2ccccc23)cn1 [CX-5461]; settings: top dose 10.24 µM; top dose inferred
Method: as §1

Obatoclax mesylate = compound: COC1=CC(c2cc3ccccc3[nH]2)=N/C1=C\c1[nH]c(C)cc1C [Obatoclax mesylate]; settings: top dose 16 µM
Method: as §1

Row | Cell Line | AUC (STF-62247) | pIC50 (STF-62247) | AUC (CP724714) | pIC50 (CP724714) | AUC (CX-5461) | pIC50 (CX-5461) | AUC (Obatoclax mesylate) | pIC50 (Obatoclax mesylate)
1 | Daoy (medulloblastoma, adherent) | 0.98 | < 4.99 | 0.884 | 5.03 | 0.74 | 5.54 | 0.065 | > 7.20
2 | Detroit562 (head and neck, adherent) | 0.987 | < 4.99 | 0.979 | < 4.99 | 0.988 | < 4.99 | 0.365 | 6.37
3 | DoTc2-4510 (cervix, adherent) | 0.989 | < 4.99 | 0.97 | < 4.99 | 0.975 | < 4.99 | 0.077 | > 7.20
4 | EBC-1 (lung squamous cell carcinoma, adherent) | 0.98 | < 4.99 | 0.971 | < 4.99 | 0.98 | < 4.99 | 0.238 | 6.81
5 | ECC10 (stomach, suspension) | 0.961 | < 4.99 | 0.962 | < 4.99 | 0.972 | < 4.99 | 0.547 | 5.87
6 | EFM-19 (breast, adherent) | 0.978 | < 4.99 | 0.966 | < 4.99 | 0.968 | < 4.99 | 0.232 | 6.97
7 | EFM-192A (breast, adherent) | 0.983 | < 4.99 | 0.978 | < 4.99 | 0.929 | < 4.99 | 0.214 | 6.89
8 | EFO-21 (ovary, adherent) | 0.965 | < 4.99 | 0.944 | < 4.99 | 0.825 | 4.99 | 0.472 | 6.09
9 | EFO-27 (ovary, adherent) | 0.978 | < 4.99 | 0.925 | < 4.99 | 0.926 | < 4.99 | 0.372 | 6.39
10 | EGI-1 (biliary tract, adherent) | 0.963 | < 4.99 | 0.971 | < 4.99 | 0.982 | < 4.99 | 0.541 | 5.88
11 | EN (endometrium, adherent) | 0.983 | < 4.99 | 0.971 | < 4.99 | 0.901 | < 4.99 | 0.689 | 5.41
12 | EPLC-272H (lung squamous cell carcinoma, adherent) | 0.949 | < 4.99 | 0.957 | < 4.99 | 0.68 | 5.66 | 0.468 | 6.09
13 | ESS-1 (endometrium, adherent) | 0.99 | < 4.99 | 0.984 | < 4.99 | 0.642 | 5.82 | 0.162 | 6.97
14 | EW-7 (Ewing sarcoma, semi-adherent) | 0.966 | < 4.99 | 0.98 | < 4.99 | 0.279 | 6.78 | 0.08 | > 7.20
15 | FADU (head and neck, adherent) | 0.984 | < 4.99 | 0.962 | < 4.99 | 0.978 | < 4.99 | 0.202 | 6.86
16 | FTC-133 (thyroid, adherent) | 0.978 | < 4.99 | 0.959 | < 4.99 | 0.986 | < 4.99 | 0.627 | 5.63

Row | Cell Line | AUC (STF-62247) | pIC50 (STF-62247) | AUC (CP724714) | pIC50 (CP724714) | AUC (CX-5461) | pIC50 (CX-5461) | AUC (Obatoclax mesylate) | pIC50 (Obatoclax mesylate)
17 | FU97 (stomach, adherent) | 0.982 | < 4.99 | 0.973 | < 4.99 | 0.983 | < 4.99 | 0.174 | 7.00
18 | FU-OV-1 (ovary, adherent) | 0.973 | < 4.99 | 0.966 | < 4.99 | 0.982 | < 4.99 | 0.468 | 6.10
19 | G-361 (melanoma, adherent) | 0.97 | < 4.99 | 0.946 | < 4.99 | 0.926 | < 4.99 | 0.064 | > 7.20
20 | G-401 (kidney, adherent) | 0.981 | < 4.99 | 0.95 | < 4.99 | 0.62 | 5.85 | 0.113 | > 7.20
21 | G-402 (soft tissue, adherent) | 0.958 | < 4.99 | 0.969 | < 4.99 | 0.819 | 5.07 | 0.389 | 6.35
22 | G-MEL (melanoma, adherent) | 0.986 | < 4.99 | 0.943 | < 4.99 | 0.986 | < 4.99 | 0.169 | 7.00
23 | GAMG (glioma, adherent) | 0.886 | < 4.99 | 0.971 | < 4.99 | 0.769 | 5.39 | 0.178 | 7.00
24 | GCT (soft tissue, adherent) | 0.985 | < 4.99 | 0.989 | < 4.99 | 0.989 | < 4.99 | 0.644 | 5.62
25 | GMS-10 (glioma, adherent) | 0.986 | < 4.99 | 0.988 | < 4.99 | 0.988 | < 4.99 | 0.621 | 5.67
26 | GP5d (large intestine, adherent) | 0.991 | < 4.99 | 0.963 | < 4.99 | 0.95 | < 4.99 | 0.226 | 6.75
27 | H4 (glioma, adherent) | 0.985 | < 4.99 | 0.985 | < 4.99 | 0.979 | < 4.99 | 0.538 | 5.90
28 | H513 (mesothelioma, semi-adherent) | 0.986 | < 4.99 | 0.946 | < 4.99 | 0.977 | < 4.99 | 0.737 | 5.25
29 | H2369 (mesothelioma, adherent) | 0.986 | < 4.99 | 0.984 | < 4.99 | 0.987 | < 4.99 | 0.282 | 6.63
30 | H2373 (mesothelioma, adherent) | 0.98 | < 4.99 | 0.983 | < 4.99 | 0.977 | < 4.99 | 0.553 | 5.84
31 | H2461 (mesothelioma, adherent) | 0.983 | < 4.99 | 0.983 | < 4.99 | 0.983 | < 4.99 | 0.513 | 5.96
